This experiment relates to BDF1 mice, P388 leukemia ip, median survival T/C. Briefly: NCI In Vivo Anticancer Drug Screen. Data for tumor model P388 Leukemia (intraperitoneal) in B6D2F1 (BDF1) mice. Conditions: endpoint: median survival time, higher = longer survival. The method, boiled down: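 Compound-treated tumour-bearing mice were compared with vehicle-treated controls. Survival was recorded, and the value is the treated-group measurement divided by the control-group measurement (T/C).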

Where [1] appears, read: dose: 100.0 mg/kg/injection, schedule: Q04DX003 (ip), vehicle: Klucel (hydroxypropylcellulose) (HPC).

Toxic doses and inconclusive results are not listed. A number of entries come with more than one value. This is not the full list of results. The source may hold further records. The values listed for one entry are repeats in other runs, samples, wells, individuals or studies. Starred links: 1 amine or outer side, 2 acyl side, 3 side chain; linkers in the order of their positions; H or OH if unused. Positions of bridges follow the written chain, without caps; N, C: chain ends. Non-standard residues stand in square brackets, D forms with d. Residues, ends and D or L forms follow the SMILES beside them. Chains are numbered I, II in the order given. Actinocin(9to1) = Cc1c2oc3c(C)ccc(C(=O)[*:1])c3nc-2c(C(=O)[*:2])c(N)c1=O; Pip(4-oxo) = O=C1CCN[CH](C(=O)O)C1; aThr = C[C@H](O)[C@H](N)C(=O)O; NMeV = CN[CH](C(=O)O)C(C)C; Sar = CNCC(=O)O

As for `CCN(CCNc1ccc(C)c2sc3ccccc3c(=O)c12)CC(C)(C)O`, the T/C runs as follows: (dose: 150.0 mg/kg/injection, schedule: Q01DX009 (ip), vehicle: saline) 109 % of control, 181 % of control, 185 % of control; (dose: 300.0 mg/kg/injection, schedule: Q04DX003 (ip), vehicle: saline) 86 % of control and 190 % of control.
As to `CO[C@H](C(=O)[C@@H](O)[C@@H](C)O)[C@@H]1Cc2cc3cc(OC4CC(OC5CC(O)C(O)C(C)O5)C(O)C(C)O4)c(C)c(O)c3c(O)c2C(=O)[C@H]1OC1CC(OC2CC(OC3CC(C)(O)C(O)C(C)O3)C(O)C(C)O2)C(O)C(C)O1` (some centres not stated), the T/C (dose: 0.38 mg/kg/injection, schedule: Q01DX010 (ip), vehicle: saline) is 110 % of control and 175 % of control; the T/C (dose: 0.75 mg/kg/injection, schedule: Q01DX010 (ip), vehicle: saline) is 120 % of control and 165 % of control.
For `Cc1cc2c(C(C)C)c(O)c(O)c(C=O)c2c(O)c1-c1c(C)cc2c(C(C)C)c(O)c(O)c(C=O)c2c1O`, the T/C (dose: 10.0 mg/kg/injection, schedule: Q01DX009 (ip), vehicle: saline with Tween-80) is 124 % of control and 150 % of control.
As to `O=S(O)OS(=O)O`, the T/C (dose: 300.0 mg/kg/injection, schedule: Q01DX009 (ip), vehicle: saline) is 95 % of control and 150 % of control.
Regarding `CC1(C)N=C(N)N=C(N)N1c1ccc(OCCCOc2ccc(S(=O)(=O)F)cc2)c(Cl)c1`, the T/C (dose: 18.75 mg/kg/injection, schedule: Q01DX009 (ip), vehicle: saline) was 120 % of control and 163 % of control.
With `CC(C)C1NC(=O)C(N)C(C)OC(=O)C(C(C)C)N(C)C(=O)CN(C)C(=O)C2CC(=O)CCN2C1=O` (configuration not stated) (tested in a mixture with another compound) (H-TV[Pip(4-oxo)][Sar][NMeV]; ester 1-C; configuration not given here), the T/C runs as follows: (dose: 225.0 micrograms/kg/injection, schedule: Q04DX003 (ip), vehicle: saline + alcohol) 108 % of control and 188 % of control; (dose: 300.0 micrograms/kg/injection, schedule: Q04DX003 (ip), vehicle: saline + alcohol) 123 % of control and 197 % of control; (dose: 600.0 micrograms/kg/injection, schedule: Q04DX003 (ip), vehicle: saline + alcohol) 104 % of control and 159 % of control.
For `CC(=O)Nc1ccc(NC(=O)c2ccc([As](O)O)cc2)cc1`, the T/C (dose: 66.0 mg/kg/injection, schedule: Q04DX003 (ip), vehicle: Klucel (hydroxypropylcellulose) (HPC)) was 120 % of control and 155 % of control; the T/C under setting [1] was 120 % of control and 161 % of control; the T/C (dose: 150.0 mg/kg/injection, schedule: Q04DX003 (ip), vehicle: Klucel (hydroxypropylcellulose) (HPC)) was 120 % of control and 150 % of control.
Regarding `N=c1c2c(C(N)=O)cn(C3OC(CO)C(O)C3O)c2ncn1O` (configuration not stated), the T/C (dose: 3.0 mg/kg/injection, schedule: Q01DX009 (ip), vehicle: saline with Tween-80) is 107 % of control and 159 % of control.
For the compound `CC1CN1CC(O)C(O)CN1CC1C` (configuration not stated), the T/C (dose: 0.39 mg/kg/injection, schedule: Q04DX003 (ip), vehicle: saline) was 103 % of control and 154 % of control.
With `NC(=S)N/N=C/c1ccc(N)cn1`, the T/C (dose: 12.5 mg/kg/injection, schedule: Q01DX009 (ip), vehicle: saline with Tween-80) is listed as 100 % of control, 158 % of control, 181 % of control.
`C(CCC1CO1)CC1CO1` (configuration not stated): for the setting “dose: 100.0 mg/kg/injection, schedule: Q04DX002 (ip), vehicle: saline with Tween-80”, the T/C was 117 % of control and 153 % of control.
Turning to `CC1=CC2C(O)(CC(CO)=CC3C4C(C)(C)C4(OC(=O)c4ccccc4)C(OC(=O)c4ccccc4)C(C)C32O)C1=O` (configuration not stated), the T/C was 98 % of control and 161 % of control (dose: 50.0 micrograms/kg/injection, schedule: Q01DX009 (ip), vehicle: saline with Tween-80); 121 % of control and 150 % of control (dose: 400.0 micrograms/kg/injection, schedule: Q01DX009 (ip), vehicle: saline with Tween-80).
For the compound `CCCCCCC[CH2][Sn](=[O])[CH2]CCCCCCC`, the T/C was 123 % of control and 150 % of control (dose: 50.0 mg/kg/injection, schedule: Q04DX003 (ip), vehicle: Klucel (hydroxypropylcellulose) (HPC)); 123 % of control and 150 % of control (dose: 75.0 mg/kg/injection, schedule: Q04DX003 (ip), vehicle: Klucel (hydroxypropylcellulose) (HPC)).
On to `CCNC(=NC)c1ccc(NC(=O)c2ccc(C(=O)Nc3ccc(C(=NC)NCC)cc3)cc2)cc1`, for which the T/C (dose: 6.0 mg/kg/injection, schedule: Q01DX009 (ip), vehicle: saline with Tween-80) was 100 % of control and 200 % of control.
Consider `Nc1ncnc2c1ccn2C1OC(CO)C(O)C1O` (configuration not stated), for which the T/C reads like this: (dose: 1.0 mg/kg/injection, schedule: Q02DX005 (ip), vehicle: saline) 108 % of control and 168 % of control; (dose: 1.0 mg/kg/injection, schedule: Q#A X002 (ip), vehicle: saline) 116 % of control and 166 % of control; (dose: 3.5 mg/kg/injection, schedule: Q01DX001 (ip), vehicle: saline) 109 % of control and 163 % of control; (dose: 4.0 mg/kg/injection, schedule: Q01DX001 (ip), vehicle: saline) 120 % of control and 166 % of control.
With `CC1OC(=O)C(C(C)C)NC(=O)C(C(C)C)OC(=O)C(C(C)C)NC(=O)C(C)OC(=O)C(C(C)C)NC(=O)C(C(C)C)OC(=O)C(C(C)C)NC(=O)C(C)OC(=O)C(C(C)C)NC(=O)C(C(C)C)OC(=O)C(C(C)C)NC1=O` (configuration not stated), the T/C (dose: 25.0 mg/kg/injection, schedule: Q04DX003 (ip), vehicle: Klucel (hydroxypropylcellulose) (HPC)) was 98 % of control and 178 % of control.
For `CN(C)c1ccc2nc3ccc(=[N+](C)C)cc-3sc2c1`, the T/C (dose: 16.5 mg/kg/injection, schedule: Q04DX003 (ip), vehicle: saline) is on record as 100 % of control, 104 % of control, 154 % of control.
Take `O=C1C(NC(=O)C2CCCCC2)=C(N2CC2)C(=O)C(NC(=O)C2CCCCC2)=C1N1CC1`: the T/C runs as follows: (dose: 100.0 mg/kg/injection, schedule: Q01DX010 (ip), vehicle: saline) 109 % of control and 186 % of control; (dose: 200.0 mg/kg/injection, schedule: Q01DX009 (ip), vehicle: Klucel (hydroxypropylcellulose) (HPC)) 106 % of control and 155 % of control; (dose: 400.0 mg/kg/injection, schedule: Q01DX009 (ip), vehicle: Klucel (hydroxypropylcellulose) (HPC)) 101 % of control and 170 % of control.
On to `CS(=O)(=O)OCCNC[C@@H](O)[C@@H](O)CNCCOS(C)(=O)=O`, for which the T/C (dose: 50.0 mg/kg/injection, schedule: Q04DX003 (ip), vehicle: saline) was 113 % of control and 186 % of control.
For the compound `C=C1C(=O)O[C@H]2C1[C@H](OC(=O)/C(C)=C\COC(C)=O)C[C@]1(CO1)[C@@H]1[C@H](O)[C@H]3O[C@@]3(C)[C@@H]12` (some centres not stated), the T/C (dose: 25.0 mg/kg/injection, schedule: Q01DX009 (ip), vehicle: other) was 115 % of control and 161 % of control.
Take `CNC(=O)c1ccc(NC(=O)Nc2cccc(C3=NCCN3)c2)cc1NC(=O)Nc1cccc(C2=NCCN2)c1`: the T/C (dose: 20.0 mg/kg/injection, schedule: Q01DX009 (ip), vehicle: saline with Tween-80) is 116 % of control and 154 % of control.
For the compound `Cc1c2oc3c(C)ccc(C(=O)N[C@@H]4C(=O)N[C@H](C(C)C)C(=O)N5CCC[C@H]5C(=O)N(C)CC(=O)N(C)[C@@H](C(C)C)C(=O)O[C@H]4C)c3nc-2c(C(=O)N[C@@H]2C(=O)N[C@H](C(C)C)C(=O)N3CCC[C@H]3C(=O)N(C)CC(=O)N(C)[C@@H](C(C)C)C(=O)O[C@H]2C)c(N)c1=O` (I: [aThr][dV]P[Sar][NMeV] / II: [aThr][dV]P[Sar][NMeV]; ester I:1-I:C, II:1-II:C; linker I:N-II:N via Actinocin(9to1)), for the setting “dose: 450.0 micrograms/kg/injection, schedule: Q04DX003 (ip), vehicle: saline + alcohol”, the T/C is given as 97 % of control, 115 % of control, 153 % of control.
As to `COC(=O)[C@@]12OC[C@]34[C@H]([C@@H](O)[C@@H]1O)[C@@]1(C)CC(=O)C(O)=C(C)[C@@H]1C[C@H]3OC(=O)[C@H](OC(=O)/C=C(\C)C(C)C)[C@@H]24`, the T/C (dose: 1.6 mg/kg/injection, schedule: Q01DX005 (iv), vehicle: saline + alcohol) is 120 % of control and 160 % of control.
As to `NC(N)=N/N=C(/c1ccccc1)c1ccc(F)cc1`, the T/C (dose: 20.0 mg/kg/injection, schedule: Q01DX009 (ip), vehicle: Klucel (hydroxypropylcellulose) (HPC)) was 118 % of control and 150 % of control.
Take `CC(C)(C)[O][Pb]([c]1ccccc1)([c]1ccccc1)[c]1ccccc1`: for the setting “dose: 1.56 mg/kg/injection, schedule: Q01DX009 (ip), vehicle: saline”, the T/C was 109 % of control, 115 % of control, 155 % of control.
As for `COc1cc2cc3c4ccccc4cc[n+]3c(C)c2cc1OC` (tested in a mixture with another compound), for the setting “dose: 40.0 mg/kg/injection, schedule: Q04DX003 (ip), vehicle: saline”, the T/C is 122 % of control and 157 % of control.
As for `CCN1C=C/C(=C\C=C/c2cc[n+](CC)c3ccccc23)c2ccccc21`, the T/C (dose: 1.5 mg/kg/injection, schedule: Q04DX003 (ip), vehicle: saline) was 113 % of control and 158 % of control.
On to `Nc1c(Br)cc2c(c1Br)Cc1cc(Cl)ccc1-2`, for which the T/C under setting [1] was 87 % of control and 177 % of control.
As for `COc1ccc(/C=C/C(=O)c2ccc3c(c2)OCO3)cc1OC`, the T/C (dose: 100.0 mg/kg/injection, schedule: Q01DX009 (ip), vehicle: saline with Tween-80) is 118 % of control and 163 % of control.

Values taken from PubChem BioAssay AID328 (DTP/NCI, 2004).
